# Measured values as given in PubChem BioAssay (Tox21).
# The shares of active, inactive and inconclusive entries below differ from those in the screen. For part of these data: Potencies of inconclusive entries are doubtful fits and often do not repeat. Active and inactive are the calls of the source. Unless noted, calls come from the whole dose curve; as a rule, active = well fitted curve in the direction sought with a large enough effect in the repeat runs; inconclusive = weak or mixed curves; inactive = no such curve, though single readings can be large; an effect the other way counts as inactive or inconclusive.
# How the values were obtained:
# [1] = qHTS assay to identify small molecule antagonists of the constitutive androstane receptor (CAR) signaling pathway - cell viability counter screen (AID 1224837); note: nearly all actives have a fitted effect of over 45% in size; note: potency is the fitted concentration of half-maximal effect
# Summary of the method: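 Counter screen run in HepG2-CYP2B6-hCAR cells: 4 hr settle, compound titration (15 concentrations) with 50 nM CITCO, 23 hr at 37 C/5% CO2, CellTiter-Fluor fluorescence.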
# [2] = target: Nuclear receptor subfamily 1 group I member 3 (Homo sapiens) (UniProt Q14994); assay: qHTS assay to identify small molecule antagonists of the constitutive androstane receptor (CAR) signaling pathway (AID 1224838);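 note: HepG2 cells stably expressing hCAR with CYP2B6 luciferase reporter stimulated by CITCO; nearly all actives have a fitted effect of over 40% in size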; note: potency is the fitted concentration of half-maximal effect
# Chain of UniProt Q14994 (Q14994 whole entry, looked up): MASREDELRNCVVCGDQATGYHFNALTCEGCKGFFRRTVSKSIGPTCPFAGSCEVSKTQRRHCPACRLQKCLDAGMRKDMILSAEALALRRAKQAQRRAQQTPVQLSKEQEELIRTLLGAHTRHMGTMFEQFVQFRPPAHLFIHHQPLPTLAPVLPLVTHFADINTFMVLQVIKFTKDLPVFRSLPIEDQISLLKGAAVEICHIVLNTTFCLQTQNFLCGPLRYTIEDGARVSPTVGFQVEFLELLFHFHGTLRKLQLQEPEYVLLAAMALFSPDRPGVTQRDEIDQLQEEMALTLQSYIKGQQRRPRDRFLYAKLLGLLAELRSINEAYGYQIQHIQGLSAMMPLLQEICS
# Summary of the method: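 Cell line: HepG2 double-stable for hCAR and CYP2B6-2.2kb reporter. Agonist: CITCO, 50 nM final. Compounds: 15 concentrations, 24 h, 37 C. Detection: ONE-Glo luminescence.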
# [3] = target: Thyrotropin receptor (Homo sapiens) (UniProt P16473); assay: qHTS assay to identify small molecule agonists of the thyroid stimulating hormone receptor (TSHR) signaling pathway (AID 1224843; calls by dose curve; note: % is set by controls: 0 for no effect and ±100 for the full control effect; nearly all actives have a fitted effect of over 45% in size); conditions: TSHR-HEK293 cells, cAMP HTRF, agonist mode, 30 min; activation: at 92.4 µM (top of the series) unless noted
# Chain of UniProt P16473 (P16473 whole entry, looked up): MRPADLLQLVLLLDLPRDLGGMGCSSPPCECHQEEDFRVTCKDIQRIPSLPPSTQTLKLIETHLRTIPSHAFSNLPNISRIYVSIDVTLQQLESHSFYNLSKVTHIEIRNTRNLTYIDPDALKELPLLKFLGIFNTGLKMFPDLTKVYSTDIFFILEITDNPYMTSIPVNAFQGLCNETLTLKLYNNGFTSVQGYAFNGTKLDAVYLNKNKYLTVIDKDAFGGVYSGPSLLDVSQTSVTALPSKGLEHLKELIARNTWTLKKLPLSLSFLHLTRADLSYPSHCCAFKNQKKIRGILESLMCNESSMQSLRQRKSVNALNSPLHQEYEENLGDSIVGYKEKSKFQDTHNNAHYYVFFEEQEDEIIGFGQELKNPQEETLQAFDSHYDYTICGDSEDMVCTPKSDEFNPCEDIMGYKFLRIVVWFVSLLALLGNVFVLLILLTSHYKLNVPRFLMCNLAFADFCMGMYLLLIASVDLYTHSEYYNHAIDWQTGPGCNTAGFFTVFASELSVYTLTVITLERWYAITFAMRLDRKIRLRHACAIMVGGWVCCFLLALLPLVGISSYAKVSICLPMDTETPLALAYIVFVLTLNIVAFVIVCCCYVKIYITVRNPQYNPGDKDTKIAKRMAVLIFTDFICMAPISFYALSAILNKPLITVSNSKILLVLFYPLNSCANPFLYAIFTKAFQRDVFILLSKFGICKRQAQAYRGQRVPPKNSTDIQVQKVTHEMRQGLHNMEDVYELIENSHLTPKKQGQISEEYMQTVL
# Summary of the method: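 TSHR-HEK293 cells in agonist mode, 30 min room-temperature step, then cAMP measured by competitive HTRF (cAMP-d2 with anti-cAMP cryptate) after 1 h at room temperature. Tested at 15 concentrations in triplicate.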
# [4] = qHTS assay to identify small molecule agonists of H2AX - cell viability counter screen (AID 1224847; calls by dose curve; note: potency is the fitted concentration of half-maximal effect; nearly all actives have a fitted effect of over 30% in size)
# Summary of the method: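 Read-out: CellTiter-Glo luminescence, 30 min RT. Cells: wild-type CHO-K1, 1000/well, 10% FBS, plated overnight at 37C. Treatment: 15 concentrations, 3 hr, 37C, 0.76% DMSO.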
# [5] = qHTS RealTime-Glo MT Cell Viability Assay in HEK293 cells - 32 hour (AID 1224868); note: potency is the fitted concentration of half-maximal effect; nearly all actives have a fitted effect of over 50% in size
# Summary of the method: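 Reads taken at 0, 8, 16, 24, 32 and 40 h from the same wells. HEK293 cells (600/well) carried RealTime-Glo reagents from seeding, with compound added after a 5 h settle at 37 C.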
# [6] = qHTS assay to identify small molecule antagonists of the estrogen related receptor signaling pathway with the pleiotropic PPARgamma coactivator (PGC) from Tox21 10K library - cell viability counter screen (AID 1224840; active = well fitted cell-killing curve with a large enough effect in the repeat runs, not every such curve was filed as active; inconclusive = weak or mixed curves, or effect the other way; inactive = no such curve, though single readings can be large or run the other way; note: nearly all actives have a fitted effect of over 40% in size; note: potency is the fitted concentration of half-maximal effect)
# Summary of the method: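 Following seeding of 2,000 PGC/ERR cells/well and 6 hours' incubation, test compounds were delivered in DMSO. The plates then sat 17.5 hours at 37 C before a fluorogenic live-cell protease reagent (CellTiter-Fluor) was read after 30 min.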
# [7] = qHTS RealTime-Glo MT Cell Viability Assay in HepG2 cells - 24 hour (AID 1224867); note: potency is the fitted concentration of half-maximal effect; nearly all actives have a fitted effect of over 50% in size
# Summary of the method: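 HepG2 suspension premixed with RealTime-Glo reagents is plated at 600 cells per well and left 5 h at 37 C/5% CO2. Compounds in DMSO then go in, and bioluminescence reflecting viable cell number is recorded over 40 h.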
# [8] = qHTS assay to identify small molecule agonists of the hypoxia (HIF-1) signaling pathway - cell viability counter screen (AID 1224844; calls by dose curve; note: potency is the fitted concentration of half-maximal effect; nearly all actives have a fitted effect of over 50% in size)
# Summary of the method: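 Cells (HRE-bla ME-180, 2,000 per well) sat 5 hrs at 37C, got compound for 17 hrs, were read for CCF4-AM FRET, and were finally lysed with CellTiter-Glo for a 30 min room-temperature luminescence read.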
# [9] = qHTS assay to identify small molecule agonists of H2AX (AID 1224845; active = well fitted activation curve with a large enough effect in the signal ratio in the repeat runs, not every such curve was filed as active; inconclusive = weak or mixed curves; the % refers to the signal ratio; note: potency is the fitted concentration of half-maximal effect); conditions: CHO-K1 phospho-H2AX Ser139 HTRF, 3 h; activation (H2AX phosphorylation): at 154 µM (top of the series) unless noted
# Summary of the method: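 Wild-type CHO-K1 cells, plated overnight, exposed 3hr at 37C to 15 concentrations (0.76% DMSO final). Lysed, then HTRF anti-pH2AX (S139) cryptate and anti-H2AX-d2 antibodies, 24 hr room temperature; 665/620 nm emission read.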
# [10] = qHTS assay to identify small molecule agonists of the hypoxia (HIF-1) signaling pathway (AID 1224846; active = well fitted activation curve with a large enough effect in the signal ratio in the repeat runs, not every such curve was filed as active; inconclusive = weak or mixed curves; the % refers to the signal ratio; note: potency is the fitted concentration of half-maximal effect); conditions: HRE-bla ME-180 cells, beta-lactamase ratio, 17 h; activation: at 76.8 µM (top of the series) unless noted
# Summary of the method: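 A low-serum medium (0.5% dialyzed FBS) holding 2,000 HRE-bla ME-180 cells per well is preincubated for 5 hrs, dosed with compounds by pintool, and kept a further 17 hrs at 37C, 5% CO2 before CCF4-AM FRET detection of beta-lactamase.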
# Tags give direction and shape of the fitted curve or compound fluorescence and quenching.
smiles,measurement,setting,value
OC(CCN1CCCCC1)(c1ccccc1)C1CCCCC1 (stereo unspecified),Potency,[1],"inconclusive: 23.7 µM [cytotoxic, partial curve, poor fit]"
same,Potency,[2],"inconclusive: 16.8 µM [inhibitor, partial curve, poor fit]"
same,activation,[3],inconclusive: -14% [at 42.5 µM]
same,Potency,[4],"inconclusive: 9.82 µM [cytotoxic, partial curve]"
same,Potency,[5],"inconclusive: 23.9 µM [cytotoxic, partial curve, poor fit]"
OC(CN1CCC(Cc2ccc(F)cc2)CC1)c1ccc(Cl)cc1 (stereo unspecified),Potency,[1],inconclusive: 29.8 µM [cytotoxic]
same,Potency,[6],"inconclusive: 33.5 µM [cytotoxic, partial curve, poor fit]"
same,Potency,[7],"inconclusive: 23.9 µM [falling, partial curve]"
CCCOCCOCCO,Potency,[1],inactive
same,Potency,[6],inactive
O=C(O)C(=O)O,Potency,[1],inactive
same,Potency,[6],inactive
same,activation,[3],inconclusive: -4.25% [at 8.39 µM]
Cc1nc2ccccc2n1Cc1ccc(Cl)cc1,Potency,[1],"inconclusive: 9.44 µM [cytotoxic, partial curve, poor fit]"
same,Potency,[2],inactive
CC1=CP(=O)(c2ccccc2)CC1 (stereo unspecified),Potency,[1],inactive
ClC(Cl)Cl,Potency,[1],"inconclusive: 68 µM [cytotoxic, partial curve, poor fit]"
same,Potency,[2],"inconclusive: 68 µM [inhibitor, single point]"
same,Potency,[8],"inconclusive: 54.5 µM [cytotoxic, single point]"
same,Potency,[9],"inconclusive: 126 µM [activator, single point]"
same,Potency,[10],inconclusive: 54.5 µM [single point]
